Among all 280,000 compounds or so, about 100 (0.036%) were called active. This list was built around the results that the source calls inconclusive (neither active nor inactive); the mix of calls is not that of the screen. Calls come from the whole dose curve; as a rule, active = well fitted inhibition curve with a large enough effect in the signal ratio, with a control signal flat (not every such curve was filed as active); inconclusive = small, poorly fitted or top-dose-only effect, or effect the other way, or a change in a side signal; inactive = no such curve, though single readings can be large or run the other way; the % refers to the signal ratio. A potency beside an inconclusive call is a rough fit, not a confirmed value. A note “side channel” means that the fit belongs to a control or component signal, not to the main read-out.
Biological target: Muscleblind-like protein 1 (Homo sapiens) (UniProt Q9NR56)
Experiment: qHTS Assay for Inhibitors of MBNL1-poly(CUG) RNA binding
Settings: TR-FRET MBNL1-His/biotin-(CUG)12 binding, 665/545 ratio; activity change, negative = inhibition: at 57.5 µM (top of the series)
Outline: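 Inhibition of protein-RNA binding appears as loss of TR-FRET between terbium anti-His antibody on MBNL1-His and streptavidin-XL665 on biotin-(CUG)12. Activity is normalized to buffer-only and uninhibited-complex controls.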
% is set by controls: 0 for no effect and ±100 for the full control effect; potency is the fitted concentration of half-maximal effect; tags give direction and shape of the fitted curve or compound fluorescence and quenching.

Sequence of UniProt Q9NR56 (Q9NR56 whole entry, looked up): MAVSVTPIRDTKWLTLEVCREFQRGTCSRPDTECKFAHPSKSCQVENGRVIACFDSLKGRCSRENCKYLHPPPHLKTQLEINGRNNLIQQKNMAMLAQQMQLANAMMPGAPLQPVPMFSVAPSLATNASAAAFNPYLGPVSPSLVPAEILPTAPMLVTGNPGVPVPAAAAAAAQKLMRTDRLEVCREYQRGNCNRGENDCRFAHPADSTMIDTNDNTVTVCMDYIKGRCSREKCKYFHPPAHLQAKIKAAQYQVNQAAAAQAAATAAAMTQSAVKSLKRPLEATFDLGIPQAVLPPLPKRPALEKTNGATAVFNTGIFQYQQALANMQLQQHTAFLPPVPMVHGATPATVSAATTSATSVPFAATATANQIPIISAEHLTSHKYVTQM

Row | Compound | activity change, negative = inhibition | Potency
1 | Cc1ccnc(NC(=O)c2ccc3[nH]c(=O)c(=O)[nH]c3c2)c1 | inactive: -0.727% | –
2 | Cc1ccc(CSc2nc3c(c(N(C)C)n2)CCCC3)cc1 | – | inconclusive: 8.91 µM [quencher, side channel, single point]
3 | Cc1ccc(NC(=O)c2ccc([N+](=O)[O-])o2)c(C)c1 | – | inconclusive: 17.8 µM [quencher, side channel, partial curve]
4 | CCCn1nnc(NC(=O)COc2cc(C)ccc2C(C)C)n1 | – | inconclusive: 0.891 µM [quencher, side channel, partial curve, poor fit]
5 | CCOC(=O)COc1c(Br)cc(C2NC(=O)NC(C)=C2C(C)=O)cc1OC (configuration not stated) | – | inconclusive: 2 µM [quencher, side channel, partial curve]
6 | Cc1cccn2c(=O)c(/C=C(\C#N)C(N)=O)c(N3CCN(c4cccc(Cl)c4)CC3)nc12 | – | inconclusive: 17.8 µM [quencher, side channel, partial curve]
7 | NC1=NC(=O)/C(=C/c2cc(Br)c(O)c(Br)c2)S1 | – | inconclusive: 39.8 µM [quencher, side channel, partial curve, poor fit]
8 | Cc1ccccc1N=C1NC(=O)/C(=C/c2cccn2C)S1 | – | inconclusive: 22.4 µM [quencher, side channel, partial curve]
9 | O=C(N/N=C/c1ccncc1)c1cc([N+](=O)[O-])cc([N+](=O)[O-])c1 | – | inconclusive: 4.47 µM [quencher, side channel, partial curve]
10 | O=[N+]([O-])c1cc(S(=O)(=O)N2CCCC2)ccc1N/N=C/c1ccncc1 | – | inconclusive: 0.1 µM [quencher, side channel, full curve, poor fit]
11 | CCNc1ccc([N+](=O)[O-])cc1 | – | inconclusive: 25.1 µM [quencher, side channel, single point]
12 | COCCn1c(=NC(=O)c2cc3ccccc3oc2=O)sc2cc(S(N)(=O)=O)ccc21 | – | inconclusive: 0.355 µM [quencher, side channel, full curve, poor fit]
13 | O=C(Nc1ccc(N2CCCCCC2)cc1)c1ccccc1Cl | inactive: -8.78% | –
14 | CCOc1ccc(N2C(=O)c3cccnc3C2=O)cc1 | – | inconclusive: 14.1 µM [quencher, side channel, partial curve]
15 | CC(C)Oc1ccc2ccccc2c1C=O | – | inconclusive: 39.8 µM [quencher, single point]
16 | O=C(c1ccco1)[C@@H]1[C@@H]2C(=O)N(c3ccccc3)C(=O)[C@@H]2C2c3ccccc3C=CN21 (some centres not stated) | – | inconclusive: 28.2 µM [quencher, side channel, single point]
17 | CNc1c(N)c(=O)oc2ccccc12 | – | inconclusive: 28.2 µM [quencher, side channel, partial curve]
18 | CC(C)OC(=O)c1c(N)n(CCCN2CCOCC2)c2nc3ccccc3nc12 | – | inconclusive: 25.1 µM [quencher, side channel, single point]
19 | O=c1nc(-c2ccccc2)c2cc(Cl)ccc2[nH]1 | – | inconclusive: 7.94 µM [quencher, side channel, partial curve]

Row | Compound | activity change, negative = inhibition | Potency
20 | COC(CNc1ccc([N+](=O)[O-])c(NCC(OC)OC)c1C#N)OC | – | inconclusive: 10 µM [quencher, side channel, partial curve]
21 | Cc1ccccc1-n1c(Cn2c(=O)sc3ccccc32)nnc1SCC(=O)NCC1CCCO1 (configuration not stated) | – | inconclusive: 100 µM [inhibitor, single point]
22 | O=C(O)c1c2c(nc3ccccc13)/C(=C/c1ccccc1[N+](=O)[O-])CCC2 | – | inconclusive: 44.7 µM [quencher, side channel, partial curve, poor fit]
23 | CN1C(=S)SC(/[N+]([O-])=C\c2cccs2)C1(C)C (configuration not stated) | – | inconclusive: 22.4 µM [quencher, side channel, partial curve]
24 | O=C(CCNS(=O)(=O)c1cccc2nsnc12)Nc1ccc2c(c1)OCCO2 | – | inconclusive: 15.8 µM [quencher, side channel, partial curve]
25 | Cc1ccccc1CN1CCc2cc([N+](=O)[O-])ccc21 | – | inconclusive: 15.8 µM [quencher, side channel, partial curve]
26 | CCn1cc(/C=C/C(=O)NCc2c(C)nn(C)c2C)cn1 | inactive: -0.281% | –
27 | COc1ccc(NC(=O)c2cc(-c3cccnc3)nc3c(C)c(C)ccc23)c(OC)c1 | inactive: -14.3% | –
28 | Cc1cccc2c1CC(C)(C)N/C2=C\C(N)=O | – | inconclusive: 7.08 µM [fluorescent, side channel, single point]
29 | O=[N+]([O-])c1ccc2nccn2c1 | – | inconclusive: 20 µM [quencher, partial curve]
30 | O=C(N/N=C/C=C\c1ccccc1[N+](=O)[O-])c1cccs1 | – | inconclusive: 10 µM [quencher, partial curve]
31 | O=C(Nc1ccc(N2CCN(C(=O)c3cccs3)CC2)c(Cl)c1)c1ccco1 | inactive: 14.3% | –
32 | CCc1nnc(NS(=O)(=O)c2ccc(NC(=S)NC(=O)/C=C/c3ccc([N+](=O)[O-])cc3)cc2)s1 | – | inconclusive: 15.8 µM [quencher, side channel, partial curve]
33 | Cc1cc(-c2cc(C(=O)NCc3ccccc3)on2)nc(S(C)(=O)=O)n1 | inactive: -1.76% | –
34 | COc1ccc2[nH]c3c(=S)nc[nH]c3c2c1 | – | inconclusive: 17.8 µM [fluorescent, side channel, single point]
35 | Nc1c(C(=O)NC2CCCCC2)nsc1C(=O)OCC(=O)NC1CCCCC1 | – | inconclusive: 0.562 µM [quencher, side channel, single point]
36 | Cc1cccc(N2CCN(C(=O)c3ccc(-n4cncn4)c([N+](=O)[O-])c3)CC2)c1C | – | inconclusive: 12.6 µM [quencher, side channel, partial curve]
37 | O=C(CC1C(=O)N(c2ccc(F)cc2)C(=O)N1Cc1ccccn1)Nc1ccccc1 (configuration not stated) | – | inconclusive: 7.08 µM [quencher, side channel, single point]

From PubChem BioAssay AID2675 (National Center for Advancing Translational Sciences (NCATS), 2010)
